Results as given in PubChem BioAssay AID1508642 (National Center for Advancing Translational Sciences (NCATS), 2021).
About 200 (0.47%) of roughly 43,000 compounds were called active. Another 12% or so got no clear call; they are omitted. Calls come from the whole dose curve; as a rule, active = well fitted cell-killing curve with a large enough effect; inconclusive = small, poorly fitted or top-dose-only effect, or effect the other way; inactive = flat fitted curve, though single readings scatter. Some of the results follow.

Test: Cell viability qHTS assay in S16 Pmp22-F2sN cells; note: nearly all actives have a fitted effect of over 65% in size
Details: S16 Pmp22-F2sN Schwann cells (luciferase reporters placed in the Pmp22 gene) viability, CellTiter-Glo, 24 h; series mostly up to 57.5 µM; activity change, negative = cytotoxicity: at the top concentration
How it was run: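 CellTiter-Glo counter-screen, qHTS, 1536-well. Cells: S16(c9) Pmp22-F2sN, 500-1,000/well in DMEM + 10% FBS. Cpd 23 nL pin transfer, 24 h, 37C/5% CO2. Read: luminescence, CCD imager.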
% is set by controls: 0 for no effect and ±100 for the full control effect.

Structure (SMILES)	activity change, negative = cytotoxicity
COCCn1ccc2c(OCC(=O)Nc3c(C)cc(C)cc3C)cccc2c1=O	inactive: 3.73%
Cc1ccc(S(=O)(=O)n2nc(-c3ccc(Cl)cc3)nc2NCc2ccccc2)cc1	inactive: -13.1%
COc1ccc(-n2ccnc(NCc3cccs3)c2=O)cc1OC	inactive: 17.2%
CCOc1ccccc1CNC(=O)C1CCN(S(=O)(=O)c2c(C)noc2/C=C/c2ccccc2F)CC1	inactive: 8.75%
CCn1c(C(=O)NCc2ccccc2OC)cc2sccc21	inactive: -3.22%
CC1=C(c2ccc(C(C)C)cc2)S(=O)(=O)N=C1N1CCC(C(=O)NCc2ccccc2)CC1	inactive: -10.4%
COc1ccc(CC(=O)Nc2cc(-c3cn4cccnc4n3)ccc2C)cc1OC	inactive: -7.74%
COc1cccc2c1cc1c(=O)n(CC(=O)N3CCN(c4cccc(C(F)(F)F)c4)CC3)nc(C)n12	inactive: 2.9%
CCOc1ccccc1NC(=O)C(CC(C)C)NC(=O)C1CCC(C)CC1 (stereo unspecified)	inactive: -1.21%
CCCCN(CC)C(=O)CSc1nc2n[nH]c(C)c2c(=N)n1-c1cccc(C)c1	inactive: -25.9%
O=C(COc1ccccc1Cl)Nc1nnc(S(=O)(=O)N2CCCC2)s1	inactive: 1.3%
Cc1ccc(NC(=O)CCc2c(C)nn(-c3ccc(N4CCOCC4)nn3)c2C)c(C)c1	inactive: 10.1%
COc1ccc(-n2nc3ccc(NC(=O)c4ccc(C#N)cc4F)cc3n2)cc1Cl	inactive: 1.27%
O=C(Nc1cccc(C(F)(F)F)c1)c1cc(-c2ccc(Cl)s2)nc2ccccc12	inactive: 5.5%
O=C(O)Cn1c(-c2cccs2)cc2cc(Cl)ccc21	inactive: 7.52%
O=C(Nc1cccs1)Nc1ccc(F)cc1F	inactive: -27.6%
COc1ccc(Cn2c(CO)cnc2SCC(=O)Nc2ccc3c(c2)OCCO3)cc1	inactive: -3.93%
COc1cccc(COC(=O)c2ccc(-c3nnn(Cc4cccc(OC)c4)n3)cc2)c1	inactive: 1.57%
CCOc1ccc(NC2SC(=O)N(Cc3ccccc3)C2=O)cc1 (stereo unspecified)	inactive: -23.3%
COc1cccc2sc(NC(=O)CS(=O)(=O)c3ccc(C)cc3)nc12	inactive: 0.586%
O=C(O)c1ccc(Cn2cnc3cccnc32)cc1	inactive: -11.1%
CC1CCN(CC2CCN(C(=O)NCc3ccc(F)cc3)CC2)CC1	inactive: 1.28%
COc1ccc(S(=O)(=O)c2cnc3cc(OC)c(OC)cc3c2N2CCCC(C)C2)cc1 (stereo unspecified)	inactive: -26.2%
CC1CN(C(=O)CCC(=O)NCc2cccc(Cl)c2)c2ccccc2S1 (stereo unspecified)	inactive: -1.72%

Structure (SMILES)	activity change, negative = cytotoxicity
Cc1nn(C(C)C(=O)NC2CCC(C)CC2)c(=O)c2c1sc1ccccc12 (stereo unspecified)	inactive: 6.93%
CCc1ccc(OCc2nc(-c3ccc(-n4cccc4)cc3)no2)cc1	inactive: 1.83%
CCc1nc(-c2cc(S(=O)(=O)N3CCN(c4ccc(OC)cc4)CC3)ccc2OC)no1	inactive: 7.43%
CCOc1ccc(-c2cn3c(n2)sc2cc(C(=O)NCCc4ccc(OC)cc4OC)ccc23)cc1	inactive: 4.23%
O=S(=O)(NCCc1csc2nc(-c3ccccc3)nn12)c1cccs1	inactive: 0.395%
CCOc1ccc(C2C(C(=O)Nc3ccccc3)=C(C)Nc3nc(SCc4cccc(OC)c4)nn32)cc1 (stereo unspecified)	inactive: -0.316%
Cc1ccc(/C=C/c2onc(C)c2S(=O)(=O)N2CCC(C(=O)N3CCN(c4cccc(C)c4)C(C)C3)CC2)cc1 (stereo unspecified)	inactive: 20.5%
Cc1ccc(OCc2nc(-c3ccc(C(=O)NCCc4ccc(Cl)cc4)cc3)oc2C)cc1	inactive: 3.03%
Cc1ccc(NC(=O)CN2C(=O)CCc3ccccc32)cc1C	inactive: 4.3%
COc1ccc(N(CC(=O)NC(C)c2ccccc2)S(=O)(=O)c2c(C)nn(C)c2C)cc1 (stereo unspecified)	inactive: 8.55%
COc1ccc(N2CCN(Cc3nc4c(c(=O)[nH]c(=O)n4C)n3Cc3ccc(C)cc3)CC2)cc1	inactive: -1.26%
CCOC(=O)c1c(C)[nH]c(C)c1S(=O)(=O)N1CCCC(C(=O)N2CCN(c3ccccc3F)CC2)C1 (stereo unspecified)	inactive: -3.91%
CCc1nn(CC(=O)N2CCN(c3cccc(OC)c3)CC2)c(=O)c2cc3occc3n12	inactive: 1.63%
COc1ccc(NC(=O)c2nn(C)c3c2CS(=O)(=O)c2ccccc2-3)cc1Cl	inactive: 3.79%
Cc1ccccc1CN1C(=O)c2ccccc2Sc2ccc(C(=O)NC3CCCCC3)cc21	inactive: -2.66%
CC(C)Nc1ccc(-c2nc(-c3ccncc3)no2)cc1[N+](=O)[O-]	inactive: -9.98%
Cc1ccc(C(=O)n2nc(C)c(S(=O)(=O)N3CCCCCC3)c2C)cc1C	inactive: -15.8%
CN(Cc1ccccc1)c1nnc(NC(=O)Nc2cccc(Br)c2)s1	inactive: -12.1%
Cc1ccc(-n2nc(C(=O)Nc3ccc(F)cc3Cl)c(=O)n(C)c2=O)cc1	inactive: -4.3%
CCOC(=O)c1c(S(=O)(=O)N2CCC(C(=O)NCc3cccc(C)c3)CC2)c(C)n(C)c1C	inactive: -0.929%
CCOc1cccc2sc(N3CCN(C(=O)c4ccc5c(c4)CCCC5)CC3)nc12	inactive: -8.77%
COc1ccccc1NC(=O)CSc1nc(O)c(C/C=C/c2ccccc2)c(=O)[nH]1	inactive: -3.59%
CCc1nnc(NC(=O)CSc2nccn2Cc2ccc(C)cc2)s1	inactive: 3.27%
COc1ccc(CNC(=O)c2nc(SCc3ccc(C)cc3)ncc2Cl)cc1	inactive: -2.16%

Structure (SMILES)	activity change, negative = cytotoxicity
COc1ccc(Cn2c(=O)n(-c3ccc(F)c(Cl)c3)c(=O)c3c2c2cc(OC)ccc2n3C)cc1	inactive: -7.55%
CCN(CC)C(=O)c1ccc2c(c1)N(Cc1c(F)cccc1Cl)C(=O)c1ccccc1S2	inactive: 12%
CC(C)C(NS(=O)(=O)c1ccc2c(c1)oc(=O)n2C)C(=O)N1CCN(c2cccc(Cl)c2)CC1 (stereo unspecified)	inactive: 6.2%
O=C(CSc1nc(=O)[nH]c2c1CCCC2)Nc1ccc(Cl)c(Cl)c1	inactive: 0.886%
COC(=O)Cn1c(=NC(=O)c2ccc3c(c2)OCCO3)sc2ccccc21	inactive: 8.04%
Cc1ccn2c(Nc3c(C)cccc3C)c(-c3ccsc3)nc2c1	inactive: -18.3%
COc1ccc(N2CC(NC(=O)c3cccs3)CC2=O)cc1 (stereo unspecified)	inactive: -1.38%
COc1ccc(Cl)cc1NC(=O)NCCn1c(=O)oc2ccc(C)cc21	inactive: -10.4%
CCc1ccc(-n2c(=O)c3ccccc3n(CC(=O)NCCc3ccc(OC)c(OC)c3)c2=O)cc1	inactive: 17.2%
Cc1ccc(N(CC(=O)N2CCN(c3cccc(Cl)c3)CC2)S(=O)(=O)c2c(C)noc2C)cc1	inactive: -19.2%
COc1ccc(C)cc1NC(=O)N1CCC(CN2CCOCC2)CC1	inactive: 14.2%
CCn1cc2nc(SCc3cccc(C(F)(F)F)c3)n(Cc3ccc(Cl)cc3)c(=O)c2n1	inactive: 25.4%
COc1ccc(OC)c(NC(=O)CCCc2nnc3n(C(C)C)c(=O)c4sccc4n23)c1	inactive: 19.4%
Cc1ccc(Cl)cc1-n1nnc(-c2nsc(NC(=O)c3ccccc3Cl)n2)c1C	inactive: 11.6%
Cc1ccc2oc(C(=O)Nc3ccc(S(=O)(=O)N4CCCC(C)C4)cc3)cc(=O)c2c1 (stereo unspecified)	inactive: -13.9%
Cc1ccc(C)c(N2CCN(C(=O)c3cnn(C(C)(C)C)c3C3CCN(C(=O)OC(C)(C)C)CC3)CC2)c1	inactive: -29.5%
COc1ccc(-c2cn3nc(N4CCC(C(=O)Nc5ccccc5OC)CC4)sc3n2)cc1	inactive: 1.27%
CCOc1ccc(NC(=O)CC2C(=O)N(c3ccccc3)C(=O)N2CCc2cccs2)cc1 (stereo unspecified)	inactive: -0.692%
Cc1ccc2cc3cc(C(=O)N4CCN(c5ccc(Cl)cc5)CC4)oc3nc2c1	inactive: 0.371%
Cc1ccccc1NC(=O)c1c(NC(=O)c2ccccc2)sc2c1CCC2	inactive: 6.81%
CCC(=O)Nc1ccc(CC)cc1-c1nc2ccccc2n(CC(=O)Nc2cccc(OC)c2)c1=O	inactive: 1.27%
Cc1ccc(CCNC(=O)c2sc3ncccc3c2-n2c(C)ccc2C)cc1	inactive: -16.2%
CC1CCCCN1c1c(S(=O)(=O)c2ccc(Cl)cc2)cnc2ccccc12 (stereo unspecified)	inactive: -2.79%
CCOC(=O)c1cc2c(=O)n3ccccc3nc2n(CC(C)C)c1=NC(=O)COc1ccc(Cl)cc1	inactive: -5.85%

Structure (SMILES)	activity change, negative = cytotoxicity
COc1ccc(C(=O)Nc2ccc3nc4c(c(Nc5ccc(OC)c(OC)c5)c3c2)CCCC4)c(OC)c1	inactive: 13.7%
COc1ccc(-c2nc(CS(=O)CC(=O)NCCc3ccccc3)c(C)o2)cc1OC (stereo unspecified)	inactive: -20.3%
Cc1cc(C)cc(-n2ccnc(NCCc3ccccc3)c2=O)c1	inactive: 13.4%
O=C(CCCc1nc(-c2ccco2)no1)Nc1ccccc1[N+](=O)[O-]	inactive: -1.82%
COc1cccc(-n2c(=O)c3c4c(sc3n(Cc3ccc(F)cc3Cl)c2=O)CCCC4)c1	inactive: -3.54%
COc1ccc(-c2[nH]ncc2C(=O)NCc2cccc(F)c2)cc1	inactive: -2.46%
CCC1CCCCN1S(=O)(=O)c1ccc(N2CCCCS2(=O)=O)cc1 (stereo unspecified)	inactive: 1.19%
CCOC(=O)c1ccc(NC(=O)c2c(C)oc3nc(C)nc(N4CCCC4)c23)cc1	inactive: 2.43%
CC(=O)Nc1c(C(=O)Nc2cccc(C)c2)nnn1-c1ccc(C)cc1	inactive: -12.7%
Cc1ccc(Cl)cc1N1CCN(C(=O)CCSCc2ccccc2F)CC1	inactive: -5.78%
CCc1ccc(-c2cc(C)no2)cc1S(=O)(=O)N1CCN(c2cccc(Cl)c2)CC1	inactive: -9.1%
COc1ccc(NC(=O)c2oc3ccc(S(=O)(=O)N(C)C4CCCCC4)cc3c2C)cc1Cl	inactive: 2.04%
Cc1ccc(-n2nc(-c3ccc(F)cc3)c3cnc4cc5c(cc4c32)OCO5)cc1C	inactive: 15.3%
CCc1ccc(NC(=O)CC(c2ccc(C)cc2)N2Cc3ccccc3C2=O)cc1 (stereo unspecified)	inactive: 12.9%
COCCNC(=O)c1ccc2nc(CCc3ccccc3)oc2c1	inactive: 0.348%
O=C(Nc1ccc2oc(-c3ccc4ccccc4c3)nc2c1)c1cc(Br)ccc1Cl	inactive: -4.38%
O=C(NCc1ccc(Cl)cc1)C(=O)Nc1cccc(Br)c1	inactive: -16.6%
CC1CCC(NC(=O)c2ccc3c(c2)N(Cc2cccc(Cl)c2)C(=O)c2ccccc2S3=O)CC1 (stereo unspecified)	inactive: -0.0231%
Cc1ccc(CN(C(=O)c2ccccc2Br)C2CCS(=O)(=O)C2)o1 (stereo unspecified)	inactive: 11.6%
Cc1ccc(NC(=O)Nc2cc3c(cc2N2CCCCC2)n(C)c(=O)n3C)cc1Cl	inactive: 0.962%
CCOc1ccccc1NC(=O)COc1cccc2c(=O)n(CCOC)ccc12	inactive: -5.46%
Cn1c(=O)c2c(SCC(=O)NCc3ccco3)nc(-c3ccccc3F)nc2n(C)c1=O	inactive: -9.12%
COc1ccc(NC(=O)C2CCN(S(=O)(=O)c3c(C)noc3/C=C/c3ccco3)CC2)cc1	inactive: 2.49%
Cc1cccc(-c2noc(-c3ccc(N4CCCC4)c([N+](=O)[O-])c3)n2)c1	inactive: 8.9%
